Data on one molecule can be found in publication PMC3338918 (2012).

Where a chain is given by its changes, count along the chain named.

Assay in all cases: SPR
Background: SPR reads the build-up and loss of mass on a sensor chip optically.

Assay [1] has as its target T1, rabbit VEGF-A165 (rabbit).
T1 chain: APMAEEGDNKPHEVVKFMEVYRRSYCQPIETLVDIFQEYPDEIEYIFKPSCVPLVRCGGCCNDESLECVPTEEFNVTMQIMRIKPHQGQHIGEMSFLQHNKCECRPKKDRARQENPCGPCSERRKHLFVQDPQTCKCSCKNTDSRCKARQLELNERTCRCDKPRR

The next assay deals with T2, murine PlGF-2 (mouse, UniProt P49764 19-158).
T2 chain: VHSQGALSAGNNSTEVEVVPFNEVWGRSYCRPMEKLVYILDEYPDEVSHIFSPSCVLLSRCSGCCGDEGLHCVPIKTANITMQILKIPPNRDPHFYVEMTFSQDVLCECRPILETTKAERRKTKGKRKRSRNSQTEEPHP

The target in assay [2] is T3, rat VEGF-A164 (rat, UniProt P16612-2 27-190).
T3 chain: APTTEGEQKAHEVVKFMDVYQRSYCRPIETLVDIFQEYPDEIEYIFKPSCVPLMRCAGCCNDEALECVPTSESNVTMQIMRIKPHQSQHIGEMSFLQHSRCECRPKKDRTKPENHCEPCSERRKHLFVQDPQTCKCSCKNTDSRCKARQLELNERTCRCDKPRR

For assay [3], the target named is T4, human PlGF-1 (human, UniProt P49763-2 19-149).
T4 chain: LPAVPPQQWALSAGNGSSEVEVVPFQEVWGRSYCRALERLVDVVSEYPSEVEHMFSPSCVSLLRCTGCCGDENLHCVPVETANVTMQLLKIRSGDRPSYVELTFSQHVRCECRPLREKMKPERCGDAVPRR

In assay [4] the target is T5, murine VEGF-A164 (mouse).
T5 chain: T3 chain with A10S, V14I, V75I

The target in assay [5] is T6, murine VEGF-A120 (mouse).
T6 chain: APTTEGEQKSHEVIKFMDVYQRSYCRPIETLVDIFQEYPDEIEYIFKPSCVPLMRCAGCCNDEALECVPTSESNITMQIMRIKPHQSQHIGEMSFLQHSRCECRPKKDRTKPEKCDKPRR

The target of assay [6] is T1, rabbit VEGF-A165.
The target in assay [7] is T3, rat VEGF-A164.
The target of assay [8] is T4, human PlGF-1.
Assay [9] deals with T5, murine VEGF-A164.
The target of assay [10] is T6, murine VEGF-A120.

B1: VEGF Trap (aflibercept) (Fc fusion)
chain: SDTGRPFVEMYSEIPEIIHMTEGRELVIPCRVTSPNITVTLKKFPLDTLIPDGKRIIWDSRKGFIISNATYKEIGLLTCEATVNGHLYKTNYLTHRQTNTIIDVVLSPSHGIELSVGEKLVLNCTARTELNVGIDFNWEYPSSKHQHKKLVNRDLKTQSGSEMKKFLSTLTIDGVTRSDQGLYTCAASSGLMTKKNSTFVRVHEK[skipping human IgG1 Fc]
A word on the koff: it is the rate constant with which the complex falls apart. One may read the Kd as the concentration at which binding is half-saturated. For the molecule B1, the off-rate (koff) with rabbit VEGF-A165 [1] is 2.63e-05 s⁻¹; with murine PlGF-2 it was 5.45e-05 s⁻¹; with rat VEGF-A164 [2], 1.73e-05 s⁻¹; with human PlGF-1 [3] it was 0.00264 s⁻¹; with murine VEGF-A164 [4], 1.64e-05 s⁻¹; with murine VEGF-A120 [5], 1.23e-05 s⁻¹. For the same molecule, the Kd came to 0.776 pM with rabbit VEGF-A165 [6]; 0.471 pM with rat VEGF-A164 [7]; 392 pM with human PlGF-1 [8]; 0.586 pM in the assay with murine VEGF-A164 [9]; 0.572 pM in the assay with murine VEGF-A120 [10].
